Reference: patent US9145351B2, “Azole derivatives, methods for producing the same, intermediate thereof, agro-horticultural agents” (KUREHA CORPORATION, priority 2009, dated 2015)
Some results were stated once for a whole list of compounds, not compound by compound. At least one compound was matched to its structure with a doubt left. Some ranges recur; such a range may be that of the whole group of compounds.

How the values were obtained:
Botrytis cinerea = assay: Efficacy test against cucumber gray mold (Experimental Example 1); format: in vivo; details: four days after inoculation
Description: Onto a cucumber (variety:SHARP1) plant in its cotyledon phase grown using a square plastic pot (6 cm×6 cm), a wettable formulation such as Formulation Example 1 which was diluted and suspended in water at a certain concentrations (100 mg/L and 50 mg/L) was sprayed at a rate of 1,000 L/ha. The sprayed leaves were air-dried, and loaded with a paper disc (8 mm in diameter) soaked in a spore suspension of Botrytis cinerea, and kept at 20 degrees C. and a high humidity. Four days after inoculation, the cucumber gray mold lesion degree was investigated, and the protective value was calculated by the following equation. Protective value (%)=(1−mean lesion degree in sprayed plot/mean lesion degree in unsprayed plot)×100

Aureobasidium sp. = assay: Plate medium assay, industrial material deteriorating microorganism, Aureobasidium (Experimental Example 5); format: cell-based; details: treatment at 50 mg/l, PDA plate medium
Description: (§1) In this Experimental Example, the fungicidal effects of the inventive compounds on various phytopathogenic fungi for plants and hazardous microorganism for industrial materials were examined by the methods described below. Each inventive compound was dissolved in 2 ml of dimethyl sulfoxide. 0.6 ml of this solution was added to 60 nil of a PDA medium (potato dextrose agar medium) at about 60 degrees C., which was mixed thoroughly in a 100-ml conical flask, and poured into a dish, where it was solidified, thereby obtaining a plate medium containing the inventive compound at 50 mg/L and 5 mg/L. On the other hand, a subject microorganism previously cultured on a plate medium was cut out using a cork borer whose diameter was 4 mm, and inoculated to the test compound-containing plate medium described above. […] The growth degree of the microorganism on the test compound-containing plate medium thus observed was compared with the growth degree of the microorganism in the untreated group, and % mycelial growth inhibition was calculated by the following equation. R=100(dc-dt)/dc wherein R=% mycelial extension inhibition, dc=flora diameter in untreated plate, dt=flora diameter in treated plate. The results obtained as described above were evaluated as one of the 5 grades according to the following criteria.

Coriolus versicolor = assay: Plate medium assay, wood denaturing microorganism Kawaratake (Experimental Example 5); format: cell-based; details: treatment at 50 mg/l, PDA plate medium
Description: as §1

Puccinia recondita = assay: Efficacy test against wheat brown rust, 100 mg/L and 10 mg/L (Experimental Example 2); format: in vivo; details: 100 mg/L sprayed at 1,000 L/ha, nine to 14 days after inoculation
Description: Onto a wheat plant (variety: NORIN No. 61) grown to the two-leaf phase using a square plastic pot (6 cm×6 cm), a wettable formulation such as Formulation Example 1 which was diluted and suspended in water at a certain concentration (100 mg/L and 10 mg/L) was sprayed at a rate of 1,000 L/ha. The sprayed leaves were air-dried, and inoculated with spore suspension of Puccinia recondita (adjusted at 200 spores/vision, […] was added at 60 ppm) by spraying, and kept at 25 degrees C. and a high humidity for 48 hours. Thereafter, the plant was kept in a greenhouse. Nine to 14 days after inoculation, the wheat brown rust lesion degree was investigated, and the protective value was calculated by the following equation. Protective value (%)=(1-lesion degree in sprayed plot/lesion degree in unsprayed plot)×100

Mucor sp. = assay: Plate medium assay, industrial material deteriorating microorganism, Mucor (Experimental Example 5); format: cell-based; details: treatment at 50 mg/l, PDA plate medium
Description: as §1

Septoria tritici = assay: Microplate test of biocidal effect on wheat Septoria blotch (Experimental Example 4); format: cell-based; details: % mycelium growth inhibition, absorbance 550 nm, 20 degrees C. for about 10 days
Description: A spore suspension of wheat Septoria blotch (Septoria tritici) (spore concentration: 1×10^6 cells/ml) was prepared, and subjected to 100-fold dilution with a PD medium. A flat 96-well microplate was provided and 1 microliter of the test compound solution formed by dissolution in dimethyl sulfoxide (DMSO) at a concentration 100 times the test concentration was dispensed to the microplate, and then 100 microliter of the medium containing the spore was added and stirred thoroughly. […] R=100×(dc−dt)/dc: R: % mycelium growth inhibition dc: Absorbance of non-treatment zone dt: Absorbance of treatment zone

rice plant = assay: Rice elongation prevention assay (Experimental Example 6); format: in vivo; details: 36 mg test compound applied to 180 g of rice seeds, 20 days after seeding
Penicillium sp. = assay: Plate medium assay, industrial material deteriorating microorganism, Penicillium (Experimental Example 5); format: cell-based; details: treatment at 50 mg/l, PDA plate medium
Description: as §1

Fusarium graminearum = format: in vivo; details: wheat head, 500 mg/L sprayed at 1,000 L/ha, four to 7 days after inoculation
Curvularia sp. = assay: Plate medium assay, industrial material deteriorating microorganism, Curvularia (Experimental Example 5); format: cell-based; details: treatment at 50 mg/l, PDA plate medium
Description: as §1

Tyromyces palustris = assay: Plate medium assay, wood denaturing microorganism Oouzuratake (Experimental Example 5); format: cell-based; details: treatment at 50 mg/l, PDA plate medium
Description: as §1

Trichoderma sp. = assay: Plate medium assay, industrial material deteriorating microorganism, Trichoderma (Experimental Example 5); format: cell-based; details: treatment at 50 mg/l, PDA plate medium
Description: as §1

Cladosporium sp. = assay: Plate medium assay, industrial material deteriorating microorganism, Cladosporium (Experimental Example 5); format: cell-based; details: treatment at 50 mg/l, PDA plate medium
Description: as §1

Aspergillus sp. = assay: Plate medium assay, industrial material deteriorating microorganism, Aspergillus (Experimental Example 5); format: cell-based; details: treatment at 50 mg/l, PDA plate medium
Description: as §1

SMILES: O[C@]1(Cn2cncn2)[C@H](Cc2ccc(Cl)cc2)CCC1(CCl)CCl (relative stereo) [Compound I-203, cis-5-(4-chlorobenzyl)-2,2-bis(chloromethyl)-1-(1H-1,2,4-triazol-1-yl)methylcyclopentanol]
- Protective value (Botrytis cinerea; 50 mg/L sprayed at 1,000 L/ha): ≥ 80%
- Protective value (Botrytis cinerea; 100 mg/L sprayed at 1,000 L/ha): ≥ 80%
- growth inhibition grade (Aureobasidium sp.): 4 (% Mycerial growth inhibition of less than 80 to 60% or higher)
- growth inhibition grade (Coriolus versicolor): 4 (% Mycerial growth inhibition of less than 80 to 60% or higher)
- Protective value (Puccinia recondita): ≥ 90%
- growth inhibition grade (Mucor sp.): 4 (% Mycerial growth inhibition of less than 80 to 60% or higher)
- activity level (EC80) (Septoria tritici): ≤ 0.2 µg/mL
- growth regulation grade (% plant height suppression) (rice plant): 4 (% Plant height suppression of less than 50 to 30% or higher)
- growth inhibition grade (Penicillium sp.): 4 (% Mycerial growth inhibition of less than 80 to 60% or higher)
- Protective value (Fusarium graminearum): ≥ 90%
- growth inhibition grade (Curvularia sp.): 4 (% Mycerial growth inhibition of less than 80 to 60% or higher)
- growth inhibition grade (Tyromyces palustris): 4 (% Mycerial growth inhibition of less than 80 to 60% or higher)
- growth inhibition grade (Trichoderma sp.): 4 (% Mycerial growth inhibition of less than 80 to 60% or higher)
- growth inhibition grade (Cladosporium sp.): 4 (% Mycerial growth inhibition of less than 80 to 60% or higher)
- growth inhibition grade (Aspergillus sp.): 4 (% Mycerial growth inhibition of less than 80 to 60% or higher)
